Paper PMC10726135
The other results are listed elsewhere or left out. At the low end of the ranking the order means little. The protein was read in a cell extract, so binding may be indirect.

target: T1, HNF4alpha2 (COS-7 nuclear extract) (UniProt P41235); experiment: protein-binding microarray; conditions: COS-7 nuclear extract on double-stranded Agilent 4x180k PBM; binding buffer, salt, pH and temperature not given; high values mean tight binding; double strand, one strand shown; sequences stand for … in …GCCTAGGGAGATTAGAGTATCGGTCGA
T1 sequence: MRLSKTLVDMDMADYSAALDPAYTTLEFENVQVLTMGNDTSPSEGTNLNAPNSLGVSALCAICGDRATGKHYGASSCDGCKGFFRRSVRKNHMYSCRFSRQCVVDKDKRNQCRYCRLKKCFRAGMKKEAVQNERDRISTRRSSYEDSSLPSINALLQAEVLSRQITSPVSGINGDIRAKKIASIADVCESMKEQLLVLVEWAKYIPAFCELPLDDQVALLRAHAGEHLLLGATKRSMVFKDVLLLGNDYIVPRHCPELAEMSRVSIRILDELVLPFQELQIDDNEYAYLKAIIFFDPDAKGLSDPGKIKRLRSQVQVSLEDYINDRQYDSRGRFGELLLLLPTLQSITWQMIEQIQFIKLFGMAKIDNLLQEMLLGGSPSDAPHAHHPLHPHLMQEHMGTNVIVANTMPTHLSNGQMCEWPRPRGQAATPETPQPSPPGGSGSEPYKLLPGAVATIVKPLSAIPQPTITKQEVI

Sequence | binding signal (log2 normalized intensity)
TTGAGGAGAGTCAAAGGTTAATGAGCCCCC | 4.32
AAACTTTAGTAGTCCAAAGCTCAGATTGCC | 0.566
GGATAGAATCAAAGGTCAGGAATCGCATTG | 3.1
CTTTCTGCATCGCAGTCGCCTGCAAGACAA | -0.955
GTGTCTCCGAGATAAGGCGTCTTATCAGCC | -1.15
TGGGTTCTTGCCCTTTGGTCTGGAACACAG | 3.31
TATCTCACTTATTTGTCATAATGCTCTTAT | 1.75
ATAGCTACGGGTGACCTTGAGCACTAAAGA | 0.298
GGTCTTTGCCCTTTCCTAGACGTAAGACAA | 1.43
TACAAATTCCAAGGACTGAGATAAGAGAAG | -1.12
CTCCCTCTGAAGGGAGGGCCAAGCCCTCCA | -1.08
TGGCCATTTGGGAAACCGCGATTAAAAATG | -1.13
AGTGCAAAGGAGTCTGATTGTTGTGTGCCC | 1.93
ACTGCGAAAGATAAAAGGCCATAGGGAAAG | -1.11
CCCCTCTTTATCTCCTGGAATCCAAAGTAT | 1.68
CCAGTGGTATGCCTCTGGGTGTCAGGGTTC | 2.12
TGTGAGGATTGATTAGATAACATCTGGACT | 1.7
AACCATACCTGGACAGCCTTTTTCAAGCAA | -0.955
CAGTTTCTTTAAGACAAGTGTCCCTCAAAC | 0.959
CGTGAGAAGAGGACTTTTTTTTGCCTAACT | -1.12
TTGAGTCCATCCCATCTTCCAGAAATGCCA | 0.189
ACGTCGAGCAGGCCCCGTCCCCGCCCCTTG | 5.05
ACTCTGAAGGAATGTAAACTCCAAGGAGCA | -1.13
AGGCAAGAAGTATGACAACAAAGCATTATC | -1.2

Sequence | binding signal (log2 normalized intensity)
TGACTTTACCTGAAATGAGACCAAAGTATT | 0.763
CTGTTTTCAAACACAGGATTGAACCTCTGG | 2.54
TATCAGACCAGCATTCTTTCTGCTGCAATT | -1.12
GGGTGGAAATCATCTCCATGCCGACTCCGA | -1.08
CAGACACACAGTCCACAGGCTATAGGGAAG | -1.07
GAGCATACATGCAGCTGAGAAAGAGAAAAT | -1.1
GCTGGGTCAAAGTGTATGCATATTTTAAGT | 2.1
AGAATATTAGATGATAAGGGTGAAAAGATA | -0.989
GTGCAGCTGACCTACATTCCACCCTCATTT | 0.82
AAGCAGGACTTAAACACCAGTACTCTTTAA | -1.11
AGGCTGAAGTGAAGTTACAAAGGTCACGCT | 4.83
TTTAAAGTGTAATTAAGGAAGATGGTGCAA | 0.522
TAACAAGGCAAACTTTATCAAGACTGCAGC | -1.18
TTTGGAGTTTGACCTGGAGCCAGGGCCTTT | 3.11
TACTGACTGAGAAACCAAGATCCTAGTCTT | -1.24
TGGTGCAAAGGTCAGGACAAGGCTCTGGTG | 3.95
ACCATTGCTTCAGCAAAACCAGTTTGTCTG | -1.04
CTCTGTTACACAAAATCGCCACTACAAAGG | -0.977
GAGCACCTGGATAAGCCAGATAATTTGTGC | 0.299
AGTGAGTGAAACATCCCACTCAAAGGTCAG | 3.2
CATTTTTTTCCACCCTCCCCTCCCCCTCCT | 6.28
CCCTTTGTACCTGGGGCAAACATCAATTTA | 0.862
AGAATTCCCATCCCACTAGGTGGCGCTGTT | -1.08
ACCTTTGCCCTGTTGTCTTTGCCCAAACCA | 2.08

Sequence | binding signal (log2 normalized intensity)
GATTCTAGGGCCCATGCCCTTAGCCACTGC | -1.02
GCCTCCATTAATTAACCTTTGAGCTGGGTG | 4.3
TCTAAGACATAACACAGGTGACCTTTGCTC | 8.37
CTCACGGACCCTGTTACCACACCACAGCGG | -1.21
GTTAGGGTGAAGTAAAGTTATACTTCTATG | -0.551
GAAGCTGCACACATGTCAAAGGTCAAAGGG | 5.6
GGGGGCGAGCATGGCCGCTCCGCGAGGTGA | -1.28
ATGCTTCCCAGAAAGAATGAGCGGGAACCT | -1.13
ACGAATAATCATATCTGCCTCAGTAGTAGT | 1.38
TCAAATTCCTGGGCTCAAACAATCCTCCCA | -1.19
CTAGGTAAGCCCACTAGGGAATGAAGCTAA | -1.01
GATGACCCCTCTCTACTGGTAAGCAAATAT | 1.81
GGATATTTGATCAAAGGTCAGCTCTCCTTT | 4.59
CTTAGAATCGAATTGTGAAACTCAGAATCA | -1.03
CCATTGCTTTCTTCCAAGGCTGCAAGCAAA | -1.12
TGCCATGGGCCTGGCTGAGCCTGGGCCGCC | -1.23
TCTTGGCCTCCCCCTTCTGAGTCTCCAATG | 2.62
TGGTGCCCTCTGAGTGTTTGACCTTTCACC | 7.66
GGGCGGCCGGCGGAGCGCCGAGCAGGCACC | -1.08
AAATATTGTCAGTGAGGAATGTGCAAACGG | 0.908
GGATTCCTGATGCGTTCAAGGAACAGCCAG | -1.14
GACCCCAGGGCAAAGTGCATTGGAGGCCAG | 3.53
GGAAACAATGGCCTTGCTGCGGATCAAAGG | 1.51
CTCAATGCAACCAGTTGGTGGGTCAAGGTG | 1.57

Sequence | binding signal (log2 normalized intensity)
AGAGAAAGGACCAGTTGAGTGCAAAGTCCC | 2.98
AACAGACAAAATTAAGTGATTTGCCCAATA | -1.17
GCCAGGCAGAGCAGGTTCTCAGGCCAATCA | -1.21
TTGAGTCAACACACCTGTGGGTAATTAATC | 1
AGATTTATCTCTCCAAGGTACTGTGAACTC | 2.5
GAACTTTGACCACCTACTGTTTGTGCAGAG | 4.13
ATTTTACAGATGGGGCTGTTTCTTTGTGTG | 1.76
GCTAGTAAGGAGCTGAGTCATAGTGGACTT | 3.44
CATGACTTACTTGGCATCATCAAACAAGAT | -0.901
CCCACTCTCCTCTGCCACTGTATCAGGGAG | -1.04
TGACCATCTGCGAAATGGGGATAAACACCC | -0.932
CTGGCTTTCATTCCACTGACTTGCAACCTT | 0.803
GCCCAAGGAGACAGGCTTTGAGCATCGCTG | -1.13
TGCTCCGGTTCCCAATAAGTTCCTCATTTT | -0.884
GTGCCATTGAGATGGTAACCACACCAAGGG | -1.1
ATTGAGGCTTAGCAGCTTGAGGCTCCGATA | -1.05
TCCGGCAGCGGCCGGAAAAAGTGAGGAGCA | 0.752
GAGCACAAATAACATTCCTAACATTCTTCC | -1.12
GGCTGAGTCAGTTTAGTCCTGGATGACCCA | 2.71
CATTCCAACCCTGCCATAAACTTCTCCCCC | 4.35
GGGGACCAGTGGGGGGAAGCTCTGTCACTT | -0.858
